Test results: paper PMC3352935, “Enzymatic Analysis of Recombinant Japanese Encephalitis Virus NS2B(H)-NS3pro Protease with Fluorogenic Model Peptide Substrates” (PLoS ONE, 2012)

Legend:
JEV NS2B(H)-NS3pro = biological target: T1, JEV NS2B(H)-NS3pro (Japanese encephalitis virus, UniProt P32886, DEL1469-1493); test: Enzymatic activity assay with fluorogenic peptide substrates (Michaelis-Menten kinetics); assay type: biochemical; details: 0.5 µM enzyme, 50 mM Tris-HCl pH 9.5, 30% glycerol, 37°C, inner filter effect corrected, mean of three experiments; for K m: substrate 2.5-1500 µM
T1 construct: PCR-amplify the NS2B(H) region (amino acids 51–95 and 121–131); The N-terminal one-third (180 residues) of NS3 represents the protease domain NS3(pro); made in house; host or cells: E. coli (the text names both C41 and BL21), vector pTrcHisA

[1] = biological target: JEV NS2B(H)-NS3pro protease (Japanese encephalitis virus (genotype III strain JaOArS 982))

Molecule: CCCC[C@H](NC(C)=O)C(=O)N[C@@H](CCCCN)C(=O)N[C@@H](CCCNC(=N)N)C(=O)N[C@@H](CCCNC(=N)N)C(=O)Nc1ccc2c(C)cc(=O)oc2c1 [Ac-nKRR-amc] (Ac-[Nle]KRR-{AMC})
- k cat (JEV NS2B(H)-NS3pro): 0.01178 ± 0.00054 s⁻¹
- k cat/K m (JEV NS2B(H)-NS3pro): 368.13 ± 17.0 M⁻¹ s⁻¹
- K m (JEV NS2B(H)-NS3pro): 32 ± 2.5 µM

Molecule: Cc1cc(=O)oc2cc(NC(=O)[C@H](CCCNC(=N)N)NC(=O)[C@H](CCCNC(=N)N)NC(=O)CNC(=O)OC(C)(C)C)ccc12 [Boc-GRR-amc]
- k cat (JEV NS2B(H)-NS3pro): 0.0037 ± 0.0002 s⁻¹
- k cat/K m (JEV NS2B(H)-NS3pro): 30.08 ± 2.7 M⁻¹ s⁻¹
- K m (JEV NS2B(H)-NS3pro): 123 µM and 123 ± 11.6 µM

Molecule: Pyr-RTKR-amc (peptide)
- K m of hydrolysis (release of amc), 0.5 µM enzyme, 37°C, 50 mM Tris-HCl pH 9.5, 30% glycerol [1]: 9 µM

Molecule: Ac-nKRR-amc (peptide)
- K m of hydrolysis (release of amc), 0.5 µM enzyme, 37°C, 50 mM Tris-HCl pH 9.5, 30% glycerol [1]: 32 µM

Molecule: Boc-GRR-amc (peptide)
- K m of hydrolysis (release of amc), 0.5 µM enzyme, 37°C, 50 mM Tris-HCl pH 9.5, 30% glycerol [1]: 123 µM

Molecule: Abz-(R)4SAGnY-amide
- k cat (JEV NS2B(H)-NS3pro): 0.0004 ± 0.000014 s⁻¹
- k cat/K m (JEV NS2B(H)-NS3pro): 19 M⁻¹ s⁻¹ and 19.000 ± 1.85 M⁻¹ s⁻¹
- K m (JEV NS2B(H)-NS3pro): 20.91 ± 2.04 µM

Molecule: Cc1cc(=O)oc2cc(NC(=O)[C@H](CCCNC(=N)N)NC(=O)[C@H](CCCNC(=N)N)NC(=O)[C@H](CC(C)C)NC(=O)OC(C)(C)C)ccc12 [Boc-LRR-amc] (Boc-Leu-Arg-Arg-{AMC})
- k cat/K m (JEV NS2B(H)-NS3pro): 3.74 ± 0.3 M⁻¹ s⁻¹ and 3.74 M⁻¹ s⁻¹
- K m (JEV NS2B(H)-NS3pro): 40 ± 5.0 µM

Molecule: Bz-nKRR-amc (peptide)
- K m of hydrolysis (release of amc), 0.5 µM enzyme, 37°C, 50 mM Tris-HCl pH 9.5, 30% glycerol [1]: 20 µM

Molecule: CCCC[C@H](NC(=O)c1ccccc1)C(=O)N[C@@H](CCCCN)C(=O)N[C@@H](CCCNC(=N)N)C(=O)N[C@@H](CCCNC(=N)N)C(=O)Nc1ccc2c(C)cc(=O)oc2c1 [Bz-nKRR-amc] (Bz-[Nle]KRR-{AMC})
- k cat (JEV NS2B(H)-NS3pro): 0.01 ± 0.00023 s⁻¹
- k cat/K m (JEV NS2B(H)-NS3pro): 500.00 ± 11.3 M⁻¹ s⁻¹
- K m (JEV NS2B(H)-NS3pro): 20 ± 1.34 µM

Molecule: Boc-LRR-amc (peptide)
- K m of hydrolysis (release of amc), 0.5 µM enzyme, 37°C, 50 mM Tris-HCl pH 9.5, 30% glycerol [1]: 40 µM

Molecule: Pyr-RTKR-amc
- k cat (JEV NS2B(H)-NS3pro): 0.0176 s⁻¹ and 0.0176 ± 0.0008 s⁻¹
- K m (JEV NS2B(H)-NS3pro): 9 µM and 9.0 ± 0.82 µM

B1: Abz-(R)4SAGnY-amide (peptide)
peptide: Abz-RRRRSAG[nY]-NH2
modifications: reading uncertain
- K m of hydrolysis (internally quenched fluorescence), 0.5 µM enzyme, 37°C, 50 mM Tris-HCl pH 9.5, 30% glycerol [1]: 20.9 µM

“And” between values parts separate entries of the source, which are not always exact repeats. Equal values may be shown once. Square brackets hold non-standard residues; d marks the D form. Peptide text beside a SMILES is read from it. * marks the point of attachment. AMC = Cc1cc(=O)oc2cc(N*)ccc12; Nle = CCCC[C@H](N)C(=O)O; Boc = CC(C)(C)OC(=O)*; nY = not defined here; Bz = O=C(c1ccccc1)*
